The record followed here is the supplement of paper PMC5655136.

Values come from read counts of a selection and are noisy.
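Also: shRNA barcodes quantified by deep sequencing of PCR amplicons from cellular DNA, counts expressed as percent of each subpool, ratio averaged over two biological duplicates.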

One series concerns NB7. The experiment in a line: fold depletion of shRNA, plasmid library share / infected cells without Dox share (9 days) (ratio); higher = more depleted after infection (more toxic, leaky expression from a Tet-inducible vector; NB7 is a neuroblastoma line without caspase-8). The following applies: shRNA pool: CD95L ORF + CD95L 3'UTR + Venus libraries. Here is the method:
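Pooled lethality screen in NB7 neuroblastoma cells infected with Dox-inducible pTIP shRNA libraries. The libraries tile every 21-mer of the Venus, CD95L or CD95 ORF / 3'UTR; each hairpin is the 21-nt sense sequence + CTCGAG loop + antisense. Cells were cultured 9 days with or without 100 ng/ml Dox. shRNA representation was measured by deep sequencing of the genomic inserts, normalised to the total reads per subpool and averaged over technical replicates. Fold depletion is the plasmid library share / infected cells without Dox share (mean of 2 biological replicates), and the -Dox/+Dox share ratio is the mean of 4 replicate pairings; higher values mean more depletion (toxicity).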
TGACCACCCTGGGCTACGGCC: the “fold depletion of shRNA” value stood at 1.68. As to TGCCACCCCTGAAGAAGAGAG, the “fold depletion of shRNA” value was found to be 7.06. For TGACTAAAGAGAGAATGTAGA, the “fold depletion of shRNA” value was 0.483. The same measure, in the same setting: then TGAAAAAAAGGAGCTGAGGAA, with 1.35; and CCATATCCCCAGATCTACTGG, with 2.34. On the same count and under the same terms, as for GTCTTTCAGATACATGGTTGT, the figure is 11; as for TGAGCTCTCTCTGGTCAATTT, 0.798.

Regarding TTCAGCGTGTCCGGCGAGGGC, the “fold depletion of shRNA” value was determined as 1.33. On the same count and under the same terms, as for ACCCTCGTGACCACCCTGGGC, the figure is 0.777; as for CATGCCCGAAGGCTACGTCCA, 0.911. For the sequence GGCACCGAGAATGTTGTATTC, the “fold depletion of shRNA” value came out at 2.95.

With GGGATGGAAAAGGAAGACTAG, the “fold depletion of shRNA” value stood at 1.27. The same measure, in the same setting: as for TGGTTGCCTTGGTAGGATTGG, the figure is 5.68; as for TCCGGGGTCAATCTTGCAACA, 2.7; as for CCTGACAATCAACTCTAATAG, 2.25. Same read-out and setting: as for CCCGCGCCGAGGTGAAGTTCG, the figure is 0.719; as for TCACTTCTAAATGCATATCCT, 1.72; as for GGGACTCATTTCATTCCTAAC, 2.35. In the case of TCTGGGCTGCCATGTGAAGAG, the “fold depletion of shRNA” value is 0.821. As for ATATGGGTTGCATTTGGTCAA, the “fold depletion of shRNA” value was 0.48. Consider GATTTTGAATGCTTCCTGACA, for which the “fold depletion of shRNA” value was 2.13.

For AGCCAGACAAATGGAGGAATA, the “fold depletion of shRNA” value was 3. On the same count and under the same terms, as for CAAGGTCCATGCCTCTGGAAT, the figure is 0.986; as for CGAGGACGGCGGCGTGCAGCT, 0.256. On the same count and under the same terms, as for GCTCTCCCTGGGCCCCTCCAG, the figure is 24.8; as for CGTGCCCTGGCCCACCCTCGT, 2.56. As for GCCATCGGTGAAACTAACAGA, the “fold depletion of shRNA” value was found to be 1.3.

For AGCAGTGCCAGCTCTCCCTGG, the “fold depletion of shRNA” value was 4.94. Still for that read-out and setting: as for ATCATCTTTGGAGAAGCAAAT, the figure is 0.662. The same measure, in the same setting: as for TACAGGCACCGAGAATGTTGT, the figure is 0.811. With CACCTACGGCAAGCTGACCCT, the “fold depletion of shRNA” value turned out to be 0.603.

On to AGCGCGATCACATGGTCCTGC, for which the “fold depletion of shRNA” value is 1.16. The same measure, in the same setting: as for GTGAGCAAGGGCGAGGAGCTG, the figure is 1.06; as for GATGAGCTACTGCACTACTGG, 1.47; as for AGGACGGCAACATCCTGGGGC, 0.719. For CCGACAACCACTACCTGAGCT, the “fold depletion of shRNA” value was 1.94. Same read-out and setting: then CCTGTGTCTCCTTGTGATGTT, with 1.07; and GATAAGCAAGAGAGATGTTTT, with 2.2; and GTTGCATTTGGTCAAGATTTT, with 5.73.

On to AGTATCCCCAGGATCTGGTGA, for which the “fold depletion of shRNA” value was found to be 1.81. Same read-out and setting: then ATTTCATTCCTAACACAGCAT, with 1.1; and AGGCACCGAGAATGTTGTATT, with 3.37; and TGAGCCACAAGGTCTACATGA, with 0.724. On to TATGACTAAAGAGAGAATGTA, for which the “fold depletion of shRNA” value worked out at 0.643. For the sequence TGTGGGCCCGCAGCAGCTACC, the “fold depletion of shRNA” value turned out to be 0.102. As to TGTTTTTCATGGTTCTGGTTG, the “fold depletion of shRNA” value turned out to be 8.92. In the case of GCGACGTAAACGGCCACAAGT, the “fold depletion of shRNA” value was found to be 0.878.

Turning to TAAAAAGTATATGTTAGGATA, the “fold depletion of shRNA” value turned out to be 0.603. Consider GAAAGAGGCCAATGCCCCACT, for which the “fold depletion of shRNA” value came to 0.561. Turning to CTGCCATGTGAAGAGGGAGAA, the “fold depletion of shRNA” value was 1.24. Consider GGGTCTTCTTACATGCATTTG, for which the “fold depletion of shRNA” value came to 4.12. Turning to AAGTGGCCCATTTAACAGGCA, the “fold depletion of shRNA” value was determined as 1.95. Still for that read-out and setting: then TCCATGCCTCTGGAATGGGAA, with 1.86; and GGAATGGGAAGACACCTATGG, with 0.809.

With CCACCACCACCGCCACCGCCA, the “fold depletion of shRNA” value worked out at 2.44. The same measure, in the same setting: then GCTGAAGGGCATCGACTTCAA, with 3.51.

The series is the same for the next values; noted with them: shRNA pool: CD95 ORF + CD95 3'UTR + Venus libraries.
As to TGACCACCCTGGGCTACGGCC, the “fold depletion of shRNA” value stood at 1.78. Same read-out and setting: as for ACCCCCGAAAATGTTCAATAA, the figure is 2.32. On the same count and under the same terms, as for GATGTTTAAAATCTAGTTGGG, the figure is 1.98. Same read-out and setting: as for AAAGCCCATTTTTCTTCCAAA, the figure is 3.03. For the sequence CACTCACCAGCAACACCAAGT, the “fold depletion of shRNA” value amounted to 1.47. Turning to CCCCTTGTGTTTGGAATTATA, the “fold depletion of shRNA” value stood at 1.85. Same read-out and setting: then ATATTTCTGTAAATGTAAACT, with 0.928. In the case of CACAGGCTAACCCCACTCTAT, the “fold depletion of shRNA” value turned out to be 1.92. As to TTCAGCGTGTCCGGCGAGGGC, the “fold depletion of shRNA” value came to 1.13. For the sequence ACCCTCGTGACCACCCTGGGC, the “fold depletion of shRNA” value is 0.964. On the same count and under the same terms, as for CATGCCCGAAGGCTACGTCCA, the figure is 0.821; as for TTTACCATATTTCTAAACTTT, 0.669.

For CACCAGCAACACCAAGTGCAA, the “fold depletion of shRNA” value worked out at 2.57.

For the sequence CCCGCGCCGAGGTGAAGTTCG, the “fold depletion of shRNA” value was found to be 0.98. As for TTGTGACATGTCATGAACCCA, the “fold depletion of shRNA” value stood at 3.72. In the case of TCTGTAAATGTAAACTGTGAA, the “fold depletion of shRNA” value was 0.781. Same read-out and setting: then GACACTAAGTCAAGTTAAAGG, with 1.08; and CCCAAATAGGAGTGTATGCAG, with 1.06; and AGTACAAATGTCTATCCACAG, with 1.16. Same read-out and setting: then CGAGGACGGCGGCGTGCAGCT, with 0.292; and AAATAAGGCTCTACCTCAAAG, with 1.13.

With CGTGCCCTGGCCCACCCTCGT, the “fold depletion of shRNA” value worked out at 1.22. Still for that read-out and setting: then AACTGCACCCGGACCCAGAAT, with 1.11. Turning to AATCAGTGTATGTTAGTACAA, the “fold depletion of shRNA” value was 0.873. CCCATGTAAAACCTGCTACAA: the “fold depletion of shRNA” value amounted to 1.19. Take CTACAGTTGAGACTCAGAACT: the “fold depletion of shRNA” value was found to be 0.587. The same measure, in the same setting: then TAGTGACTCAGAAAATTCAAA, with 0.835; and GTAAAATCATCATCTGGATTT, with 1.17.

Turning to TGATAAAATAGATTCTTATTT, the “fold depletion of shRNA” value amounted to 0.972. The same measure, in the same setting: as for TTCTGAGTATATGCAATTAGT, the figure is 0.665; as for CACCTACGGCAAGCTGACCCT, 0.462; as for TCACCAAAAAATACTTAATAG, 1.2.

Consider CAACACCAAGTGCAAAGAGGA, for which the “fold depletion of shRNA” value came to 1.21.

As for AAAGATTCTTAATAGCTGGCT, the “fold depletion of shRNA” value came to 1.37. Consider CCTCAAGGACATTACTAGTGA, for which the “fold depletion of shRNA” value was determined as 0.733. In the case of ACCAAAAAATACTTAATAGTC, the “fold depletion of shRNA” value was 0.476. On the same count and under the same terms, then ATGGCCTAATGCACCCCCAAA, with 1.44.

AAGAGCCAACATATTTGTAGA: the “fold depletion of shRNA” value was 0.907. Still for that read-out and setting: as for AACTTCCATTTATGGAGGATT, the figure is 1.36. On to TTCAGACTATCATCCTCAAGG, for which the “fold depletion of shRNA” value came to 1.42.

As for ATTAAGATTATGCTCTGGCAT, the “fold depletion of shRNA” value amounted to 2.86. Still for that read-out and setting: then TTTCCCCCACCCCCGAAAATG, with 11; and AGCGCGATCACATGGTCCTGC, with 0.806. For the sequence AGGATTTTTTTGCCCCTTGTG, the “fold depletion of shRNA” value amounted to 0.527.

Take GTGAGCAAGGGCGAGGAGCTG: the “fold depletion of shRNA” value turned out to be 0.523. AGGACGGCAACATCCTGGGGC: the “fold depletion of shRNA” value was determined as 1.11. The same measure, in the same setting: then TGAAGTTCGAGGGCGACACCC, with 1.44.

With GGAAATAAACTGCACCCGGAC, the “fold depletion of shRNA” value is 0.758.

In the case of GATTGGAATTGAGGAAGACTG, the “fold depletion of shRNA” value amounted to 0.973. Take CCGACAACCACTACCTGAGCT: the “fold depletion of shRNA” value was 1.93.

On to AGAACAGAAAGTTCAACTGCT, for which the “fold depletion of shRNA” value came out at 1.88. Take CTCTAAATTACCTCTGATAAT: the “fold depletion of shRNA” value was found to be 1.12. As to GGAGAGTATTACTAGAGCTTT, the “fold depletion of shRNA” value came out at 0.955. The same measure, in the same setting: then TCCAGATCTAACTTGGGGTGG, with 0.628. Same read-out and setting: as for GGTGCTCATCTTAATGGCCTA, the figure is 5.38. Same read-out and setting: then GCATCAAGGCCAACTTCAAGA, with 26; and AGTATGAATGTAATCAGTGTA, with 2.74; and CCAAGTGCAAAGAGGAAGGAT, with 2.07. Regarding TTTTTTGCCCCTTGTGTTTGG, the “fold depletion of shRNA” value is 1.37. The same measure, in the same setting: then TACCAAGTGCAGATGTAAACC, with 1.08; and AATTCAGTTCTGAGTATATGC, with 2.34.

Consider GTTGACTTGAGTAAATATATC, for which the “fold depletion of shRNA” value worked out at 0.975.

On to TTGTGTGATGAAGGACATGGC, for which the “fold depletion of shRNA” value worked out at 2.13. In the case of ATCTGGACCCTCCTACCTCTG, the “fold depletion of shRNA” value was 1.98. For the sequence GCAGAATTTAAATAAGGCTCT, the “fold depletion of shRNA” value was 3.11.

For GCGACGTAAACGGCCACAAGT, the “fold depletion of shRNA” value came to 0.91. On the same count and under the same terms, then ACTTCATGGAAAGAAAGAAGC, with 0.741. Take GTTCTGAGTATATGCAATTAG: the “fold depletion of shRNA” value came to 1.23.

Consider TTCCAAATGCAGAAGATGTAG, for which the “fold depletion of shRNA” value came out at 0.462.

Turning to CCATAAGCCCTGTCCTCCAGG, the “fold depletion of shRNA” value was determined as 1.36.

On to CAACTTCATGGAAAGAAAGAA, for which the “fold depletion of shRNA” value worked out at 0.51. On the same count and under the same terms, then CACAGAAAGGAAAACCAAGGT, with 1.29; and CACTAATTGTTTGGGTGAAGA, with 0.746; and CAATGGGGATGAACCAGACTG, with 0.584. Same read-out and setting: as for GCTGAAGGGCATCGACTTCAA, the figure is 3.09.
